Consider 87 compounds from ChEMBL document CHEMBL4888484, “Replenishing the malaria drug discovery pipeline: Screening and hit evaluation of the MMV Hit Generation Library 1 (HGL1) against asexual blood stage Plasmodium falciparum ,using a nano luciferase reporter read-out” (2022).

Structures are written as SMILES. Screen size: about 150,000 compounds; about 540 (0.36%) showed an effect of 50% or more. This is one part of the list.

In this test the test system is Plasmodium falciparum. Nature of the test: Primary screen in NF54 nanoGlo assay, in single point, at 2uM, 72h; a lower Z score goes with more inhibition. The conditions noted are these: timepoint 72 hour. Type of test: functional, Erythrocyte.
Regarding `CCn1ncc(-c2ccccc2OCc2ccccc2)c1C(=O)O`, the “% Inhibition” value was 1% and the Z score is -0.21.
Taken in the same sequence, the figures for `CCOc1ccc(-c2c[nH]c([C@H]3CCOC3)n2)cc1OCC` were -16% and 2.2.
Taken in the same sequence, the figures for `Cc1ccc(CC(=O)N(CCc2ccc(F)cc2)C2CCCC2)cn1` were -8% and 1.32.
In the case of `Cc1ccc(CN2CCN(Cc3ccccn3)[C@H]3CS(=O)(=O)C[C@H]32)cc1`, the “% Inhibition” value is reported as -9% and the Z score is 0.84.
On the same counts, the results for `Cc1cc(C(=O)NCCCN2CCCC2=O)c(-c2ccccc2)o1` are -7% and 0.76.
`Cc1cc(C(=O)NC[C@H]2CCCN(c3cc(O)ncn3)C2)cc(C)n1`: the “% Inhibition” value is reported as 6% and the Z score is -0.64.
Taken in the same sequence, the figures for `CCc1cnc(C)nc1N1CCC(N[C@@H](C)c2n[nH]c(C)n2)CC1` were -3% and 0.44.
Taken in the same sequence, the figures for `Cc1ccc(C)c([C@@H]2CCCN2C(=O)CCc2cncn2C)c1` were -7% and 0.85.
On the same counts, the results for `Cc1cncc(C(=O)NC[C@@H](CO)Cc2ccc(Cl)cc2)c1` are -7% and 0.93.
With `Cn1cnc2c(C(=O)NCc3cccc(F)c3)nn(-c3ccc(Cl)cc3)c2c1=O`, the “% Inhibition” value is recorded as -3% and the Z score was 0.32.
Taken in the same sequence, the figures for `Nc1c(-c2ccccn2)nsc1C(=O)N1CCCCC1` were -15% and 2.61.
Taken in the same sequence, the figures for `N#CCCn1cc(C(=O)O)c(-c2cccc3ccccc23)n1` were -4% and 0.61.
On the same counts, the results for `Cc1ncsc1CNC(=O)NCCc1cc2ccccc2o1` are -6% and 1.09.
Turning to `CO[C@H]1[C@@H]2CC[C@H]1CN(C(=O)c1cc(C)[nH]c(=O)c1)C2`, the “% Inhibition” value was -14% and the Z score was found to be 1.51.
For the compound `O=C(c1cccs1)N1CCc2ncnc(N3CCC(O)CC3)c2CC1`, the “% Inhibition” value was found to be 1% and the Z score is given as -0.1.
Taken in the same sequence, the figures for `COc1ccccc1[C@@H](O)CNC(=O)Nc1csnc1OC` were 14% and -1.72.
Taken in the same sequence, the figures for `CCn1cc(C)c(C(=O)O)c1CC(=O)N1CCc2ccccc21` were -1% and 0.19.
Take `Cc1nc(C)c(CC(=O)NCc2cnc3cnccn23)s1`: the “% Inhibition” value is given as -17% and the Z score stood at 1.79.
Taken in the same sequence, the figures for `Nc1n[nH]c(S(=O)(=O)CCCc2ccccc2)n1` were -5% and 0.43.
Taken in the same sequence, the figures for `CCN1CC[C@H](NC(=O)c2cc(OC)ccn2)C1` were -7% and 0.95.
On the same counts, the results for `C[C@H](O)CCN(C)c1ccc(Br)cc1C#N` are -4% and 0.61.
Regarding `Cc1cccc(N(CCC(N)=O)C(=O)[C@H]2CCn3c(cnc3C(F)(F)F)C2)c1`, the “% Inhibition” value is recorded as -7% and the Z score was 1.17.
Taken in the same sequence, the figures for `c1snnc1Cn1c(-c2csnn2)nc2cc3c(cc21)OCCCO3` were -6% and 1.26.
Taken in the same sequence, the figures for `CN(C)C(=O)COc1ccc(C#N)cc1` were -9% and 1.13.
Consider `Cc1nnc(CN2[C@H]3C[C@H]4CCC3(CS2(=O)=O)C4(C)C)s1`, for which the “% Inhibition” value came to 5% and the Z score is listed as -0.52.
On to `O=C(Cn1ncn2c(cc3cc(F)ccc32)c1=O)NC[C@H]1CCCO1`, for which the “% Inhibition” value is -7% and the Z score was determined as 0.92.
On the same counts, the results for `NC(=O)[C@@H]1CN(Cc2cc(F)ccc2F)C[C@H]1COc1ccncc1` are 0% and -0.03.
Taken in the same sequence, the figures for `O=C(O)c1ccc(C(=O)N2CC(c3ccccc3)C3CCCC32)c(F)c1` (centres undefined) were -7% and 1.02.
On the same counts, the results for `CCOc1ccccc1CNC(=O)CN1C(=O)C(C)(C)c2cc(C)ccc21` are 0% and -0.05.
Consider `CCN(Cc1nccn1C)C(=O)c1ccc(-c2cc(OC)nc(OC)n2)cc1`, for which the “% Inhibition” value is given as -3% and the Z score is listed as 0.67.
On the same counts, the results for `CC(=O)N1CC(C(=O)N2CCC3(CCC3)CC2)C1` are 17% and -1.99.
Taken in the same sequence, the figures for `CC(=O)[C@@H]1C[C@H](C(=O)NCc2ccc(Oc3cccc(F)c3)nc2)C1(C)C` were -12% and 1.64.
Taken in the same sequence, the figures for `CCS(=O)(=O)CC(C)N(C)C(=O)NC1CCCC(C)C1` (centres undefined) were -3% and 0.4.
For `CCc1csc(N2CCOCC3(CC3)C2)n1`, the “% Inhibition” value amounted to 0% and the Z score is -0.04.
On the same counts, the results for `Cc1ccc2nc3n(c2c1)[C@@H](CNC1CCCCC1)COC3` are 3% and -0.35.
On the same counts, the results for `CC1CN(C(C)C(=O)O)CC(c2ccsc2)O1` (centres undefined) are -5% and 0.41.
On to `O=C(Nc1ccnc(C2CCCC2)n1)[C@@H]1CCCO1`, for which the “% Inhibition” value is -1% and the Z score worked out at 0.08.
Taken in the same sequence, the figures for `COc1ccc(-c2cn(CCCc3cnn(C)c3)nn2)c(F)c1` were 9% and -1.2.
On the same counts, the results for `CCCCC[C@H](C)NS(=O)(=O)Cc1cc(C)no1` are -4% and 0.6.
Taken in the same sequence, the figures for `CC(C)(C)CS(=O)(=O)NC1CC2CCC1O2` (centres undefined) were -5% and 0.46.
Take `NC(=O)N1CC[C@H](NC(=O)c2ccc(C(F)(F)F)c(F)c2)C1`: the “% Inhibition” value is listed as -32% and the Z score is 3.72.
On the same counts, the results for `CC(C)C1=NO[C@H](C(=O)NCCN2CCCCC2=O)C1` are -15% and 2.35.
With `Cc1nc2cc(CC(=O)NC3(CO)CCCCC3)ccc2[nH]1`, the “% Inhibition” value is on record as -9% and the Z score was found to be 1.36.
On the same counts, the results for `O=C(N[C@H]1CC[C@H](Oc2ncccn2)CC1)[C@@H]1Cc2ccccc2CO1` are -8% and 1.42.
Taken in the same sequence, the figures for `CC(C)(C)NCCOCCOc1cc(Cl)ccc1Cl` were 5% and -1.02.
Taken in the same sequence, the figures for `COCC(=O)N[C@@H]1CN(CC2CC2)CC[C@@H]1c1nc(C)no1` were -14% and 1.89.
Consider `O=c1n(Cc2ccon2)nc2ccccn12`, for which the “% Inhibition” value is reported as -9% and the Z score stood at 1.44.
Taken in the same sequence, the figures for `O=C1c2cccnc2CN1[C@@H]1CCC[C@H]1OCc1ccccc1` were -6% and 1.15.
Taken in the same sequence, the figures for `CC(C)(C)CN(CCCO)C(=O)c1ccc(C#N)cn1` were -6% and 0.88.
On the same counts, the results for `O=C1N(c2ccccc2)Cc2nn(Cc3ccc(Cl)cc3)c(=O)n21` are -1% and 0.07.
For the compound `C[C@H](NC(=O)NCC1(CS(C)(=O)=O)CC1)C(C)(C)C`, the “% Inhibition” value is on record as -2% and the Z score was 0.26.
With `Cc1cccc(C)c1OCc1cc(C(=O)N2CCN3CCC[C@H]3C2)no1`, the “% Inhibition” value is given as -14% and the Z score was 1.25.
Turning to `CN(C)c1cc2c(cc1NC(=O)NCC[C@H]1CCCOC1)n(C)c(=O)n2C`, the “% Inhibition” value is recorded as -4% and the Z score is 0.59.
For the compound `Nc1nc2c(c(NCCN3CCNC3=O)n1)CCCC2`, the “% Inhibition” value was 2% and the Z score was -0.28.
Regarding `Cc1csc(C(=O)NCC[C@H](O)c2cccn2C)c1`, the “% Inhibition” value is recorded as 22% and the Z score was -2.78.
On the same counts, the results for `Cc1ccc(Cc2ccccc2C(=O)N2C[C@H]3CCN(C)[C@H]3C2)cc1F` are -5% and 0.99.
Consider `CC1(C)C[C@@H]1C(=O)Nc1cc(C(F)(F)F)n[nH]1`, for which the “% Inhibition” value is -1% and the Z score was found to be 0.07.
Taken in the same sequence, the figures for `Cc1cnc(NCc2cccs2)nc1NCc1cccs1` were 10% and -1.24.
As to `COc1ccc(CC(=O)N2CCc3nc(N4CCCCC4)nc(Oc4cccc(OC)c4)c3C2)cc1`, the “% Inhibition” value is reported as -12% and the Z score came to 1.12.
On the same counts, the results for `COc1ccc(OC)c(-c2nn(-c3ccccc3)cc2CCC(=O)NCc2cccc(Cl)c2)c1` are -5% and 0.6.
On the same counts, the results for `COCCn1nc(C)c(NC(=O)N2CC(C)CC(C)C2)c1C` (centres undefined) are -8% and 0.99.
On the same counts, the results for `CC(C)c1ccc(C(=O)NC[C@H]2CCC3(CCOCC3)O2)c(O)c1` are -2% and 0.44.
On to `Cc1cc(C)cc(S(=O)(=O)Nc2cc(C(=O)O)ccc2N(C)Cc2ccccc2)c1`, for which the “% Inhibition” value is -12% and the Z score came out at 1.2.
Taken in the same sequence, the figures for `O=C(NCCc1ccc(Cl)cc1)c1nn[nH]c1Nc1ccccc1F` were 3% and -0.37.
Taken in the same sequence, the figures for `C[C@H](NC(c1ccccc1)c1ccccc1)c1nnc(-c2cccs2)o1` were 33% and -4.41.
Taken in the same sequence, the figures for `COCCN(Cc1cncs1)C(=O)c1cc2c(s1)CCNC2` were 7% and -1.36.
For the compound `C=C1C(C(=O)Nc2ccccc2F)[C@H]1C(=O)Nc1ccccc1F` (some centres undefined), the “% Inhibition” value is recorded as 0% and the Z score is -0.04.
Taken in the same sequence, the figures for `O=C(CCc1cn[nH]c1)N(Cc1cnn(-c2ccccc2)c1)C1CC1` were -16% and 2.05.
Taken in the same sequence, the figures for `COCc1cc(-c2cnn3c2CCCC3)cs1` were -1% and 0.15.
As to `Cc1onc(-c2ccc(Br)cc2)c1C(=O)NCCN1CCCCC1`, the “% Inhibition” value was -8% and the Z score was found to be 1.37.
Taken in the same sequence, the figures for `CCc1ccc(C(=O)N(C)Cc2nc(CC(C)C)no2)s1` were -2% and 0.31.
Regarding `CN(C)c1nc2ccc(OC(=O)COc3ccccc3)cc2s1`, the “% Inhibition” value is -21% and the Z score is 3.92.
On to `Cc1cc(NC(=O)CN2CCN(S(=O)(=O)c3cccs3)CC2)on1`, for which the “% Inhibition” value is on record as -10% and the Z score is reported as 2.15.
On the same counts, the results for `Cc1cccc(C2CC2C(=O)N2CCCC(CN3CCOCC3)C2)c1` (centres undefined) are -8% and 1.14.
On the same counts, the results for `Cc1ccnc(NC(=O)[C@H]2CCCN2C(=O)c2ccccc2)c1C1CC1` are -11% and 1.13.
On the same counts, the results for `CC1CC1C(=O)N1CCCC(CN2CCN(c3ccccn3)CC2)C1` (centres undefined) are -2% and 0.26.
As to `Cc1ccc(-c2nc(C)sc2CC(=O)N2CCc3cc(S(=O)(=O)N(C)C)ccc32)cc1`, the “% Inhibition” value was -16% and the Z score turned out to be 1.41.
Taken in the same sequence, the figures for `O=C(Nc1ccc2oc(-c3cccnc3)nc2c1)c1cccnc1` were 32% and -3.6.
On the same counts, the results for `COc1cc(OC)cc(N2CCC(NC(=O)[C@H]3C[C@H]3C(=O)N(C)C)CC2)c1` are -9% and 1.1.
As for `CCN(C(=O)[C@H]1CCCOC1)c1ccc(Cl)cc1F`, the “% Inhibition” value is -7% and the Z score turned out to be 1.
On to `CCOC(=O)CNC(=O)N1CCC2(CC1)CN(c1cccc(F)c1)[C@@H]2c1ccccc1`, for which the “% Inhibition” value is -4% and the Z score worked out at 0.69.
On the same counts, the results for `CC(C)c1csc(CN(Cc2cccnc2)Cc2ccsc2)n1` are -9% and 1.27.
As for `CCc1[nH]nc(-c2cccc(OC)c2)c1NC(=O)C1CCCCC1`, the “% Inhibition” value is listed as 1% and the Z score is -0.22.
As to `CCc1nnc(CN(C(=O)Cc2c(C)n[nH]c2C)C(C)C)o1`, the “% Inhibition” value was determined as 5% and the Z score was -0.7.
In the case of `CO[C@H]1C[C@H]2CC[C@@H](C1)N2c1ncnc2[nH]cnc12`, the “% Inhibition” value is 15% and the Z score is given as -1.94.
Taken in the same sequence, the figures for `CCc1cnc(CN2CC[C@@]3(C2)NC(=O)N(C(C)C)C3=O)o1` were -12% and 2.21.
On to `COc1ccc(-c2cnc3ccccc3c2)nn1`, for which the “% Inhibition” value was -13% and the Z score is listed as 2.48.

As a reminder, the % Inhibition is the drop in the measured response relative to a control, in per cent.
